Results as given in the supplement of paper PMC10126150.
Sequences with one replicate were seen in a single cluster, so their values are uncertain.

System: ATP
Assay: switch fluorescence ratio, 500 uM ATP over buffer (Cy3 cluster intensity, sum of 5 cycles each) (fold (ratio)); higher = stronger signal-on switching upon ATP binding; sequences stand for … in TCGTCGGCAGCGTCAGATGTGTATAAGAGACAGTTTTTTTTTTTTTTTTTTTTTTTTT…TC
Conditions: aptamer strand: ATP DNA aptamer (quencher-CACCTGGGGGAGTATTGCGGAGGAAGG + anchor), 100 nM annealed; ATP concentration: 500 uM; one replicate
Outline: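 Clusters carrying Cy3-labelled switching strands on a modified Illumina MiSeq flow-cell were annealed to 100 nM quencher-labelled ATP aptamer and imaged in selection buffer. They were imaged again after 15 min with 500 uM ATP at 22 °C, over five buffer/ATP cycles with NaOH stripping and re-annealing in between. For each cluster, the fluorescence ratio is the summed Cy3 intensity of the target cycles divided by that of the buffer cycles, averaged per switch-domain sequence. Clusters outside 100-1000 RFU were left out.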
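Also: ATP exposure 15 min at 22 °C before imaging.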

Sequence	switch fluorescence ratio
AAAAAAAG	1.02
AAAAAAGCCT	1.02
AAAAAAGGCT	1.03
AAAAACACGG	0.972
AAAAACATT	1.04
AAAAACGGTA	1.13
AAAAACTACT	1.09
AAAAAGTCCG	0.998
AAAACATCAG	1.03
AAAACCAATC	1.11
AAAACGAAAG	1.04
AAAACGAGTA	0.998
AAAACGGCGC	1.01
AAAACGTCGG	1.03
AAAACTCGCT	1.06
AAAAGAACCT	1.82
AAAAGAGCGT	0.954
AAAAGAGGAT	1.01
AAAAGATACC	1.07
AAAAGCAGAA	1.07
AAAAGCATCT	1.02
AAAAGCCGAG	1
AAAAGCGAGT	1.01
AAAAGCGTCG	1.02
AAAAGCTAAT	1.02
AAAAGCTACG	0.998

Sequence	switch fluorescence ratio
AAAAGCTTGG	1
AAAAGGAACG	1.04
AAAAGGCCTA	0.996
AAAAGGTGTC	1.03
AAAAGTATTG	0.989
AAAAGTTTTA	0.996
AAAATAAAAT	0.937
AAAATACGAG	1.12
AAAATCACTT	1.06
AAAATCCTTA	1.03
AAAATCTTTT	1.04
AAAATGAGTC	1.03
AAAATGGAAT	0.932
AAAATGGGAT	0.98
AAAATGTGCT	1.08
AAAATGTTGG	1.01
AAAATTAACC	1.07
AAAATTCAAT	1
AAAATTGGCT	1.08
AAACAAATTA	0.991
AAACAACTCA	0.947
AAACAATACA	1.05
AAACAATCGC	1.03
AAACACTTTG	0.998
AAACAGGTTA	1.01
AAACATACAG	1.19

Sequence	switch fluorescence ratio
AAACATGTAT	0.965
AAACCACATA	1.05
AAACCAGATG	1.12
AAACCATAGT	1.08
AAACCCAGCG	1.2
AAACCCGTAT	1.06
AAACCGGTGC	1.14
AAACGAAAGA	1.04
AAACGACGCT	1.65
AAACGAGCGT	0.997
AAACGAGTTA	1.06
AAACGGAAAT	1.03
AAACGGGG	1.01
AAACGGGGGA	1.03
AAACGTGATA	1.06
AAACGTGCAT	1.08
AAACTAAGGA	0.99
AAACTAATT	0.987
AAACTACACA	1.38
AAACTACTTC	1.25
AAACTAGCTA	0.984
AAACTAGTTT	0.943
AAACTGATTA	0.974
AAACTGGTTC	1.01
AAACTGTGTG	0.97
AAAGAAAACT	1.06

Sequence	switch fluorescence ratio
AAAGAAAGAG	0.972
AAAGAATACA	1.02
AAAGACCGAG	1
AAAGACCTTA	1.06
AAAGACGGAA	1.21
AAAGACGGTC	1.01
AAAGAGCGTG	0.961
AAAGAGTCAG	1.02
AAAGATATTC	1.03
AAAGATTAC	1.02
AAAGCAAGAT	1.82
AAAGCAAGGG	1.3
AAAGCAAGGT	1.1
AAAGCAATCT	1.87
AAAGCCCGGA	1.04
AAAGCGGGAG	0.986
AAAGCGTAGG	1.06
AAAGCTACGC	1.08
AAAGCTTCGA	1.07
AAAGGAGTAT	1.01
AAAGGATAGG	0.962
AAAGGCGCAG	1.05
AAAGGGCGT	0.986
AAAGGGGCAA	1.02
AAAGGTTAAT	1.02
AAAGGTTAGC	1.01

Sequence	switch fluorescence ratio
AAAGTAAGTG	0.961
AAAGTATAG	1
AAAGTATCCA	1
AAAGTCAGT	1.05
AAAGTGTAGC	1.05
AAAGTTATGC	0.968
AAAGTTCGGA	0.983
AAAGTTCGTT	1
AAAGTTCTTT	0.917
AAAGTTGCCA	1.02
AAATAACGCG	0.946
AAATAAGCCG	1.08
AAATAAGCGT	1.03
AAATAATATC	1.02
AAATACAAGT	1.08
AAATACATAC	1.5
AAATACCGGA	1.21
AAATACCTGG	1.09
AAATAGCGCC	0.972
AAATAGGTTC	1.09
AAATATAGAG	1.03
AAATATTTGG	0.992
AAATCATAAC	1.01
AAATCCAGAA	1
AAATCCCGTG	1.03
AAATCGGCT	0.991

Sequence	switch fluorescence ratio
AAATCTACCC	1.15
AAATGCAATG	1.04
AAATGGAACG	1.01
AAATGGCACC	1.04
AAATGGGGT	1.04
AAATGGTACC	1.04
AAATGTAGGT	0.963
AAATGTGACA	1
AAATGTGGGT	1.07
AAATTCTGT	0.942
AAATTCTTCG	1.04
AAATTGAAAG	1.08
AAATTGTGAG	0.971
AAATTTAGTC	1.01
AAATTTAT	1.02
AAATTTCGAT	1.01
AAATTTTACA	1.08
AACAAACAGC	1.01
AACAAACTTC	1.32
AACAAATTTG	0.991
AACAACCTGA	1.45
AACAAGAGGA	0.985
AACAAGGAAG	1.01
AACAAGGCAG	1.02
AACAATCCTA	1.01
AACAATGTTC	1.04

Sequence	switch fluorescence ratio
AACACCCGTG	0.997
AACACGCT	1.01
AACACGTACT	1.79
AACAGACAGC	1.11
AACAGACGTA	1.07
AACAGACGTT	1.21
AACAGAGCGG	0.984
AACAGATCGC	0.979
AACAGCAGTA	1.07
AACAGCCATC	1.12
AACAGCGGCG	0.975
AACAGGGGC	0.929
AACAGGTTCC	1.08
AACAGTTCCA	1
AACAGTTCGG	0.974
AACATACCTT	1.31
AACATATTGA	1.01
AACATGCCGA	1.09
AACATTATAC	1.11
AACATTTGTT	1.04
AACCAAGCGT	1.01
AACCAGCCAT	1.03
AACCATAAGA	0.984
AACCATCCGC	2.55
AACCATTTG	1.02
AACCCAGGCC	1.04

Sequence	switch fluorescence ratio
AACCCCGACA	1.39
AACCCCTTAT	0.999
AACCCGCGGT	1.02
AACCGATCAG	1.09
AACCGATGGT	0.972
AACCGGCTTT	1.04
AACCTACTAT	1.1
AACCTAGGTT	1.05
AACCTATTC	1.07
AACCTGATGG	1.04
AACCTGTTCT	0.992
AACCTTAAGG	1.03
AACGAAATGG	1.19
AACGACGACT	1.08
AACGACGCTG	1.39
AACGACTGGT	1
AACGAGACTA	1.02
AACGAGATTC	0.999
AACGAGGGCG	1.07
